# Laboratory results from publication PMC4336329 (PLoS ONE, 2015).
# The whole screen tested about 310,000 compounds, of which about 2,200 (0.71%) showed an effect of 50% or more. The effect is printed as a negative number. The list shows a part of the results.
# Target: human ether-à-go-go-related gene (hERG) potassium channel (human, UniProt Q12809)
# Test: primary screen, population patch clamp on CHO cells stably expressing hERG
# Chain of human ether-à-go-go-related gene (hERG) potassium channel (Q12809 whole entry, looked up): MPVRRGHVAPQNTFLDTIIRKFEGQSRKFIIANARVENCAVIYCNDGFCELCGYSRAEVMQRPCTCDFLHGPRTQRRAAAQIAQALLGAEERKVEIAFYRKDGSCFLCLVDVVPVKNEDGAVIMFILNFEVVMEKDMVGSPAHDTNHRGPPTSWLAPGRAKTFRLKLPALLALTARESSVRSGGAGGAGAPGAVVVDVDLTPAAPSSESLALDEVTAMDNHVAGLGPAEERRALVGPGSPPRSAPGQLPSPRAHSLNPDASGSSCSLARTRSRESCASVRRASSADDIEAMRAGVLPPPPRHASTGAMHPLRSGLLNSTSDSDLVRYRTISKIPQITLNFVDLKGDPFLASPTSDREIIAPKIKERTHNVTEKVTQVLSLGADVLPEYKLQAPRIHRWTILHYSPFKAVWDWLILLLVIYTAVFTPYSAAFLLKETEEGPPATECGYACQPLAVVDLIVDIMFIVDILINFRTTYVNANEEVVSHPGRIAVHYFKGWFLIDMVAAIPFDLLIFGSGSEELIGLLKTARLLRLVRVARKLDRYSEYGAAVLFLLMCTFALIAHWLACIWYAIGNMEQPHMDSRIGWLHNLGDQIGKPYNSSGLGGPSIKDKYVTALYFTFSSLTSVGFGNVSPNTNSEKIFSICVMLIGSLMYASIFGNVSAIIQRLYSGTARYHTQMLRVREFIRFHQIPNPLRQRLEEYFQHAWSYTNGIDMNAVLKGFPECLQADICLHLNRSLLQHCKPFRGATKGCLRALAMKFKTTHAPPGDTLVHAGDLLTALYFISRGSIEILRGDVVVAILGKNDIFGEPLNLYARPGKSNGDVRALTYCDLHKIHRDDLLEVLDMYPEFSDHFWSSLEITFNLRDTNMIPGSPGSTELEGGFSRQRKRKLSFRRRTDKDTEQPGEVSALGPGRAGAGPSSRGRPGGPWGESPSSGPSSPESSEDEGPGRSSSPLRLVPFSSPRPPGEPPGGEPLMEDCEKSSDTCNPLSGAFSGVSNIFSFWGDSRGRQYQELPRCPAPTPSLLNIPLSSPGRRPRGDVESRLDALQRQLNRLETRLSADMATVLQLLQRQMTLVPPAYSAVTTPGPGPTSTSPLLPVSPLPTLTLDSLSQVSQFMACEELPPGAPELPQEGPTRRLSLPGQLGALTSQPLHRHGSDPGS
row,Structure (SMILES),"hERG current change (%, negative = inhibition) at 1uM [%]"
1,O=C(NC(=S)Nc1ccc(N2CCOCC2)cc1)c1ccc2c(c1)OCCO2,9.38
2,Cc1ccc(Nc2nc(-c3ccccc3)c(CC(=O)O)s2)cc1,21
3,Cc1ccc2[nH]c(C(=O)O)c(NC(=O)[C@@H]3C[C@@H]3c3ccccc3)c2c1,7.56
4,COc1cccc(N(C(=O)CNC(=O)c2ccco2)C(C(=O)NC2CCCCC2)c2cccnc2)c1 (stereo not shown),13.7
5,CCn1c(C)nc2cc(C(=O)NNC(=O)CCC3CCCC3)ccc21,13.9
6,CCC(=O)N1CCc2cc(S(=O)(=O)NC(C(=O)NC3CCCc4ccccc43)C(C)C)ccc21 (stereo not shown),4.53
7,O=C(N1CCCCCC1)N1CCN(S(=O)(=O)N2CCOCC2)CC1,0.917
8,CCN(C(=O)COc1ccccc1)c1nnc(-c2cccnc2)s1,11
9,Br.CCCCN1C2=NCCCN2c2cc(C)c(C)cc21,-39.2
10,CN1C(=O)/C(=C/c2cc3c(cc2Br)OCO3)NC1=S,4.81
11,O=C(c1ccccc1F)N1CCC(O)(c2cccnc2)CC1,7.28
12,O=C1NC(c2ccccc2)=C(c2ccc3ccccc3n2)C(c2ccccc2)N1 (stereo not shown),2.29
13,CCCN1C(=O)/C(=C/c2ccc(C)s2)NC1=S,12.5
14,Cc1ccc(CCNC(=O)C2CCCN(c3nc4ccccc4o3)C2)cc1 (stereo not shown),-3.2
15,NC(=O)c1ccc(Oc2ccc(Cl)c3ccccc23)c([N+](=O)[O-])c1,12.3
16,O=S(=O)(/N=S1/CC=CCN1S(=O)(=O)c1ccccc1)c1ccccc1 (stereo not shown),13.5
17,CC1CCCC(C)N1C(=O)COC(=O)CNC(=O)c1ccccc1F (stereo not shown),17.3
18,CSc1nnc(-c2ccc(C(F)(F)F)cn2)o1,-7.32
19,CCOC(=O)C1=C(CNCc2ccc(F)cc2)NC(=O)NC1c1cccc([N+](=O)[O-])c1 (stereo not shown),-2.87
20,C=CCn1c(SCc2cc(C(=O)OC)c(C)o2)nnc1-c1ccncc1,6.09
21,CC(CCCC(C)(C)O)NC(=O)c1cc(COc2ccc3ncccc3c2)on1 (stereo not shown),2.77
22,CC(C(=O)NCc1cccc(Cl)c1)N1C(=O)c2ccccc2C1=O (stereo not shown),11.7

row,Structure (SMILES),"hERG current change (%, negative = inhibition) at 1uM [%]"
1,Cc1ccccc1NC(=O)Cc1c[nH]c2ccccc12,11.3
2,Cc1cccc(CN2CCc3c(OCC(=O)N4CCCc5ccccc54)cccc3C2=O)c1,9.31
3,Cc1noc(C)c1CSCC(=O)Nc1ccc(S(C)(=O)=O)cc1,15.3
4,O=C(Nc1ccc(F)cc1)c1cc2cc(Cl)ccc2[nH]1,8.87
5,O=C(Nc1nnc(COc2ccccc2)s1)C1CCN(S(=O)(=O)c2ccc(Cl)cc2)CC1,2.84
6,COc1ccc(OC)c(/C=C/C(=O)OCC(=O)Nc2cccc(Oc3ccccc3)c2)c1,18
7,O=[N+]([O-])c1cccc(N/N=C/c2cccc3ccccc23)c1,4.29
8,C=CCn1c(SCC(=O)Nc2sc(C)c(C)c2C(=O)OCC)nnc1-c1sc(N)nc1C,5.02
9,CSCc1ccc(C(=O)NCc2ccc(F)cc2)cc1,15.6
10,CN(c1ccc(C(=O)NCc2ccccn2)cc1)S(=O)(=O)c1ccc(Cl)cc1,9.65
11,Cc1cccn2c(=O)c(C=NCCO)c(NCc3ccco3)nc12,1.45
12,O=C(NCCN1CCOCC1)/C(=C/c1ccccc1)NC(=O)c1ccccc1,3.35
13,CCc1ccc2n(-c3ccc(OC)cc3)c([S-])c(C(=O)Nc3cc(C)cc(C)c3)[n+]2c1,13.7
14,COCCN(C(=O)CSc1nnc(-c2ccco2)n1C)c1c(N)n(CC(C)C)c(=O)[nH]c1=O,8.54
15,Cc1nn(C2CCS(=O)(=O)C2)c(Cl)c1/C=C/C(=O)OCC(=O)Nc1ccccc1OC(F)F (stereo not shown),13.7
16,O=C(COC(=O)Cc1ccsc1)Nc1cccc(F)c1,5.14
17,COc1ccc(C(=O)N2CCN(c3cnn(-c4ccccc4)c(=O)c3Cl)CC2)cc1,-38.5
18,CC(=O)c1ccc(OCCCC(=O)OCC(=O)Nc2c(C)nn(-c3ccccc3)c2C)cc1,7.67
19,COc1ccc(C(=O)N2CCCC(O)C2)cc1OC1CCN(C(C)C)CC1 (stereo not shown),19.9
20,CC1=NN(c2ccccc2)C(=O)/C1=C\c1cn(C)c2ccccc12,7.98
21,COCC(C)NC(C(=O)Nc1cccc(C(C)=O)c1)c1ccccc1 (stereo not shown),7.18
